The results in this text go back to the supplement of paper PMC10037445.

Whole data set: some 2,900 compounds, median “NF-kB SEAP reporter activity, fold change vs agonist alone” near 0.99, cut for the highest 2% near 2.6. The list shows a part of the results.

The subject of test [1] is RAW-Dual. Kind of test: NF-kB SEAP reporter activity, fold change vs agonist alone; cytotoxicity flag (confluency mask): not cytotoxic; higher = enhanced NF-kB activity. In outline: (§1)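 After 50 nL of library stock was delivered by pin tool to RAW-Dual macrophages (50,000 cells/well, DMEM, 384-well plates), a PRR agonist was added 1 h later and the plates were kept at 37 °C, 5% CO2. Twenty hours later, IRF was read from supernatant by QuantiLuc luminescence and NF-κB by QuantiBlue absorbance at 620 nm. Reporter activity is stated as fold change over agonist-alone wells. Wells with IncuCyte confluency under 70% of agonist controls in both mask sets were counted as cytotoxic.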

Test [2] relates to RAW-Dual. In words: NF-kB SEAP reporter activity, fold change vs agonist alone; higher = enhanced NF-kB activity. The method, boiled down:
as §1

In test [3] the test system is RAW-Dual. In words: NF-kB SEAP reporter activity, fold change vs agonist alone; cytotoxicity flag (confluency mask): cytotoxic (confluency <70% of control); higher = enhanced NF-kB activity. The method, boiled down: as §1
The mark [4] stands for this setting: agonist: ODN 1826 (TLR9) 0.5 ug/mL.
Setting [5] is: agonist: Pam2CSK4 (TLR2/6) 0.1 ug/mL.
[6] abbreviates: agonist: Pam3CSK4 (TLR2/1) 0.1 ug/mL.
Setting [7] is: library stock concentration (final ~1000-fold dilution): 10 mM, cytotoxicity flag (confluency mask): not cytotoxic, agonist: Imiquimod (TLR7) […].
Setting [8] is: library stock concentration (final ~1000-fold dilution): 10 mM, cytotoxicity flag (confluency mask): not cytotoxic, agonist: MPLA (TLR4) […].

In the case of `O=C(O)C1(Cc2cccc(Nc3nccs3)n2)CCC(Oc2cccc(Cl)c2F)CC1` (centres undefined) (library stock concentration (final ~1000-fold dilution): 10 mM), the “NF-kB SEAP reporter activity” value in the test with RAW-Dual [1] (agonist: LPS (TLR4) 0.1 ug/mL) came to 1.26; with RAW-Dual [1] (setting [4]) it was 0.637; in the test with RAW-Dual [1] (setting [5]), 0.778; with RAW-Dual [1] (setting [6]), 0.563.
Take `O=C(O)C1(Cc2cccc(Nc3nccs3)n2)CCC(Oc2cccc(Cl)c2F)CC1` (centres undefined): the “NF-kB SEAP reporter activity” value was found to be 1.07 with RAW-Dual [2] (setting [7]) and 1.04 in the test with RAW-Dual [2] (setting [8]).
Take `Cl.Cl.c1cc(-c2nc3ccc(OCCCN4CCCC4)cc3o2)ccc1OCCCN1CCCC1`: the “NF-kB SEAP reporter activity” value with RAW-Dual [2] (library stock concentration (final ~1000-fold dilution): 1 mM, cytotoxicity flag (confluency mask): not cytotoxic, agonist: Imiquimod (TLR7) […]) was 1.27; in the test on RAW-Dual [2] (library stock concentration (final ~1000-fold dilution): 1 mM, cytotoxicity flag (confluency mask): not cytotoxic, agonist: MPLA (TLR4) […]), 1.08.
Regarding `Cl.Cl.c1cc(-c2nc3ccc(OCCCN4CCCC4)cc3o2)ccc1OCCCN1CCCC1` (library stock concentration (final ~1000-fold dilution): 1 mM), the “NF-kB SEAP reporter activity” value with RAW-Dual [1] (agonist: LPS (TLR4) 0.1 ug/mL) was found to be 0.935; in the test on RAW-Dual [1] (setting [4]) it was 0.224; in the test with RAW-Dual [1] (setting [5]) it was 1.11; with RAW-Dual [1] (setting [6]), 1.06.
For `N#CC1(c2ccc(NC(=O)c3cccnc3NCc3ccncc3)cc2)CCCC1` (library stock concentration (final ~1000-fold dilution): 10 mM) the same measures were 1.14, 0.66, 0.639 and 0.296.
For the molecule `N#CC1(c2ccc(NC(=O)c3cccnc3NCc3ccncc3)cc2)CCCC1`, the “NF-kB SEAP reporter activity” value in the test with RAW-Dual [2] (setting [8]) worked out at 0.787.
Consider `CC(ONC(=O)c1cc(C(F)(F)F)cc(C(F)(F)F)c1)C(=O)Nc1ccc(Cl)cc1` (centres undefined), for which the “NF-kB SEAP reporter activity” value in the test with RAW-Dual [2] (setting [7]) came to 0.98; in the test with RAW-Dual [2] (setting [8]), 1.4.
Consider `CC(ONC(=O)c1cc(C(F)(F)F)cc(C(F)(F)F)c1)C(=O)Nc1ccc(Cl)cc1` (centres undefined) (library stock concentration (final ~1000-fold dilution): 10 mM), for which the “NF-kB SEAP reporter activity” value with RAW-Dual [1] (agonist: LPS (TLR4) 0.1 ug/mL) came to 1.45; with RAW-Dual [1] (setting [4]), 0.913; in the test on RAW-Dual [1] (setting [5]), 0.239; in the test on RAW-Dual [1] (setting [6]), 0.6.
In the same order, the values of `CC1OC(OC2C(O)C(OCCc3ccc(O)c(O)c3)OC(CO)C2OC(=O)/C=C/c2ccc(O)c(O)c2)C(O)C(O)C1O` (centres undefined) (library stock concentration (final ~1000-fold dilution): 10 mM) are 1.21, 1.05, 1.03 and 1.11.
Regarding `CC1OC(OC2C(O)C(OCCc3ccc(O)c(O)c3)OC(CO)C2OC(=O)/C=C/c2ccc(O)c(O)c2)C(O)C(O)C1O` (centres undefined), the “NF-kB SEAP reporter activity” value in the test on RAW-Dual [2] (setting [8]) was determined as 1.02.
Take `CC(Nc1ncnc(N)c1C#N)c1cc2cccc(-c3ccc(=O)n(C)c3)c2c(=O)n1C(C)C` (centres undefined): the results for the “NF-kB SEAP reporter activity” value in the test on RAW-Dual [2] (setting [7]) and in the test on RAW-Dual [2] (setting [8]) were 1.22 and 2.8, respectively.
With `CC(Nc1ncnc(N)c1C#N)c1cc2cccc(-c3ccc(=O)n(C)c3)c2c(=O)n1C(C)C` (centres undefined) (library stock concentration (final ~1000-fold dilution): 10 mM), the “NF-kB SEAP reporter activity” value with RAW-Dual [1] (agonist: LPS (TLR4) 0.1 ug/mL) came to 4.83; in the test with RAW-Dual [1] (setting [4]), 0.722; in the test with RAW-Dual [1] (setting [5]) it was 1.22; in the test on RAW-Dual [1] (setting [6]) it was 3.02.
For `COc1ccc2[nH]cc(C=C3C(=O)Nc4ccc(NC(=O)CCN5CCCCC5)cc43)c2c1` (library stock concentration (final ~1000-fold dilution): 10 mM), the “NF-kB SEAP reporter activity” value with RAW-Dual [3] (agonist: LPS (TLR4) 0.1 ug/mL) came out at 4.16; with RAW-Dual [3] (setting [4]) it was 0.42; in the test with RAW-Dual [3] (setting [5]), 1.36; with RAW-Dual [3] (setting [6]) it was 2.01.
Regarding `COc1ccc2[nH]cc(C=C3C(=O)Nc4ccc(NC(=O)CCN5CCCCC5)cc43)c2c1`, the “NF-kB SEAP reporter activity” value in the test with RAW-Dual [2] (library stock concentration (final ~1000-fold dilution): 10 mM, cytotoxicity flag (confluency mask): cytotoxic (confluency <70% of control), agonist: Imiquimod (TLR7) […]) came to 1.4; with RAW-Dual [2] (library stock concentration (final ~1000-fold dilution): 10 mM, cytotoxicity flag (confluency mask): cytotoxic (confluency <70% of control), agonist: MPLA (TLR4) […]) it was 2.
With `CCCCCOc1ccc(-c2cc(-c3ccc(C(=O)NC4CC(O)C(O)NC(=O)C5C(O)C(C)CN5C(=O)C(C(O)CC(N)=O)NC(=O)C(C(O)C(O)c5ccc(O)c(OS(=O)(=O)O)c5)NC(=O)C5CC(O)CN5C(=O)C(C(C)O)NC4=O)cc3)no2)cc1` (centres undefined) (library stock concentration (final ~1000-fold dilution): 10 mM water), the “NF-kB SEAP reporter activity” value came to 1.2 in the test on RAW-Dual [1] (agonist: LPS (TLR4) 0.1 ug/mL), 1.05 in the test on RAW-Dual [1] (setting [4]), 0.968 in the test on RAW-Dual [1] (setting [5]) and 1.09 with RAW-Dual [1] (setting [6]).
